These results are taken from publication PMC6005816.

Protein sequences, listed by entry. Tags and fused reporters are not part of them. Lines headed by an entry give the natural chain unless they say otherwise; changes in a name come on top. Residues count along the entry.
UniProt O60826: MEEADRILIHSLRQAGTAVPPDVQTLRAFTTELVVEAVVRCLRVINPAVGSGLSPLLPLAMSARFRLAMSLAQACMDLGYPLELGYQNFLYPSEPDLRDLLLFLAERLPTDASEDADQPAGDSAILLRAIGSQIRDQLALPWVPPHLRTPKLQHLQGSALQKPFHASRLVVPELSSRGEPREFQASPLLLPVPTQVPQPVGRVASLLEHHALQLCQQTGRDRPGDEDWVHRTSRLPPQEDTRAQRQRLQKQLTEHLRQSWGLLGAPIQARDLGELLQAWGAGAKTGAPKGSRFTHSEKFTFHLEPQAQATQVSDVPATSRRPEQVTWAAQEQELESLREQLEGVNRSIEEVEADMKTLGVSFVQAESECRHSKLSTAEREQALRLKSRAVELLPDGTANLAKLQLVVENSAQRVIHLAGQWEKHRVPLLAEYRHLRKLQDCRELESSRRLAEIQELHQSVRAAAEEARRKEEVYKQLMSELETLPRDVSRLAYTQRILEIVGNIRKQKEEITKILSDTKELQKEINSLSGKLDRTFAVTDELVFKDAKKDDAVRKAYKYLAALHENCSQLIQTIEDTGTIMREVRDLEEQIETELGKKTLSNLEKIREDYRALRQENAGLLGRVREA
myc-CCDC22 (1–322): residues 1-322 of O60826
myc-CCDC22 (1–143): residues 1-143 of O60826
myc-CCDC22 (144–627): residues 144-627 of O60826
myc-CCDC22 (323–627): residues 323-627 of O60826

Positions count from the first letter of the chain named. These are yes or no findings as the source states them, for the method shown. In cells and extracts the contact can be indirect. Some entries that bind do so weakly or less than the wild type. For part of these data: Sequences can lack the tags named with a protein.

The target of assay [1] is myc-CCDC22 (1–143) (human) (UniProt O60826). As to the kind of experiment: co-IP; Myc-Trap on lysates of HEK293T cells transfected with full-length, point-mutant or truncated myc-CCDC22; blotted for endogenous proteins.
The target in assay [2] is myc-CCDC22 (1–322) (human) (UniProt O60826). The description is as above.
In assay [3] the target is myc-CCDC22 (144–627) (human) (UniProt O60826). Described as above.
Assay [4] concerns the target myc-CCDC22 E239K, expressed in HEK293T (human) (UniProt O60826). The assay is described as above.
The target of assay [5] is myc-CCDC22 R321W, expressed in HEK293T (human) (UniProt O60826). The assay is described as above.
The target of assay [6] is myc-CCDC22 T17A, expressed in HEK293T (human) (UniProt O60826). The assay is described as above.
The target of assay [7] is myc-CCDC22 T30A, expressed in HEK293T (human) (UniProt O60826). Described as above.
The target of assay [8] is myc-CCDC22 (323–627) (human) (UniProt O60826). Described as above.
The target in assay [9] is myc-CCDC22 R128Q, expressed in HEK293T (human) (UniProt O60826). The assay is described as above.
Assay [10] addresses T1, VPS33B K419D L431K-FLAG-BirA* (human) (UniProt Q9H267).
T1 sequence: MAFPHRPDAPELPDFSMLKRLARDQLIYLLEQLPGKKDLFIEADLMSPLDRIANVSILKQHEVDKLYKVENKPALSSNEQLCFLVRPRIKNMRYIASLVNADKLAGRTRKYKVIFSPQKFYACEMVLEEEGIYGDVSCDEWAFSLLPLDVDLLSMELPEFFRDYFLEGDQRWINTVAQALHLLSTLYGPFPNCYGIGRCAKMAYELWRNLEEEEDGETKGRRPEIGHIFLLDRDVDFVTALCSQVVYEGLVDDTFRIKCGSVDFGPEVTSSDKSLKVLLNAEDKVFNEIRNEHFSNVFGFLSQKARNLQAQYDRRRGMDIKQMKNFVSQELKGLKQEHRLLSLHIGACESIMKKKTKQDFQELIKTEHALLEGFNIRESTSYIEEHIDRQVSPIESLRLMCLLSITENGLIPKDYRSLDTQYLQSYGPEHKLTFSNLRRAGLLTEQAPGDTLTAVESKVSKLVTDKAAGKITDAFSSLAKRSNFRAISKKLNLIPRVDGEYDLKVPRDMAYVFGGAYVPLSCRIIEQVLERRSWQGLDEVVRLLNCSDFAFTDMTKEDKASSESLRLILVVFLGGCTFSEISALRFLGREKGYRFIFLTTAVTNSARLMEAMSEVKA
As to the kind of experiment: co-IP; anti-FLAG M2 magnetic resin on lysates of stable HEK293 Flp-In T-REx cells expressing FLAG-BirA*-tagged bait (tetracycline-induced); 10 mM Tris-HCl pH 7.5, 150 mM NaCl, 0.5 mM EDTA, 0.5% NP-40; 1 h at 4 °C; eluted with FLAG peptide; blotted for endogenous protein.

The target of assay [11] is T2, VPS33B P428D L431K-FLAG-BirA* (human) (UniProt Q9H267).
T2 sequence: T1 sequence with D419K, P428D
Described as above.

Assay [12] has as its target T3, VPS33B-FLAG-BirA* (human) (UniProt Q9H267).
T3 sequence: T1 sequence with D419K, K431L
Described as above.

B1: endogenous VIPAR (protein, UniProt Q9H9C1 1-493)
chain: MNRTKGDEEEYWNSSKFKAFTFDDEDDELSQLKESKRAVNSLRDFVDDDDDDDLERVSWSGEPVGSISWSIRETAGNSGSTHEGREQLKSRNSFSSYAQLPKPTSTYSLSSFFRGRTRPGSFQSLSDALSDTPAKSYAPELGRPKGEYRDYSNDWSPSDTVRRLRKGKVCSLERFRSLQDKLQLLEEAVSMHDGNVITAVLIFLKRTLSKEILFRELEVRQVALRHLIHFLKEIGDQKLLLDLFRFLDRTEELALSHYREHLNIQDPDKRKEFLKTCVGLPFSAEDSAHIQDHYTLLERQIIIEANDRHLESAGQTEIFRKHPRKASILNMPLVTTLFYSCFYHYTEAEGTFSSPVNLKKTFKIPDKQYVLTALAARAKLRAWNDVDALFTTKNWLGYTKKRAPIGFHRVVEILHKNNAPVQILQEYVNLVEDVDTKLNLATKFKCHDVVIDTYRDLKDRQQLLAYRSKVDKGSAEEEKIDALLSSSQIRWKN
Turning to B1, the binding entry in assay [1] is reported as “no binding”; in assay [2] it was “no binding”; in assay [3], “binds”; in assay [4], “binds”; in assay [5], “binds”; in assay [6], “binds”. In addition, the binding entry in assay [7] is “binds”; in [8] it was “binds”; in assay [9], “binds”; in assay [10], “no binding”; in [11], “binds weakly”; in [12], “binds”.
